# In PubChem BioAssay AID1240 (Sanford-Burnham Center for Chemical Genomics, 2008):
# Out of some 50,000 compounds screened, about 800 (1.6%) showed an effect of 50% or more. The list shows a part of the results.
# Molecular target: Bcl-2-like protein 10 (Homo sapiens) (UniProt Q9HD36)
# Assay: TR3 peptide-Bcl-B binding displacers, biochemical primary FP assay, phenotype converters (AID 1240);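 further: 0% = Bcl-B with tracer peptide and DMSO and 100% = tracer peptide lacking Bcl-B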
# Settings: GST-Bcl-B / FITC-TR3 peptide fluorescence polarization; stronger effect = higher value; compound at 3.75 mg/L
# Sequence of UniProt Q9HD36 (Q9HD36 whole entry, looked up): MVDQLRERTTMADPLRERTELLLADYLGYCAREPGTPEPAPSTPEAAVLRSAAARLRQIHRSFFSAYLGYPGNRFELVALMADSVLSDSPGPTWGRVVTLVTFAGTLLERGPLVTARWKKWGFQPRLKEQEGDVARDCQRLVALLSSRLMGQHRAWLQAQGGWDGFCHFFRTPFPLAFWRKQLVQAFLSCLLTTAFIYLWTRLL
row,SMILES,displacement
1,COc1ccc(OC)c(/C(C)=N\NC(=O)c2cccnc2)c1,-8.4%
2,O=C(Nc1ccc([N+](=O)[O-])cc1)C1C(c2ccccc2)C1(Cl)Cl (stereo not given),4.5%
3,C/C(=N\NC(=O)c1cc(C23CC4CC(CC(C4)C2)C3)[nH]n1)c1ccc(N)cc1,-8.7%
4,CCc1ccccc1NC(=O)CN(c1ccc(OC)c(Cl)c1)S(C)(=O)=O,9%
5,COc1ccc(N(CC(=O)Nc2ccccc2Cl)S(C)(=O)=O)cc1,3%
6,CCOC(=O)c1c(NC(=O)c2ccc(OC)cc2)sc2c1CCC2,-1.1%
7,CC1(C)CC(NCCC#N)CC(C)(C)N1,3.4%
8,Cc1ccc2nc(SCc3ccc([N+](=O)[O-])cc3)nc(C)c2c1,-7.5%
9,CN1CCN(C(=O)/C(=C/c2ccc(Cl)cc2)NC(=O)c2ccccc2)CC1,-6%
10,O=C1S/C(=C\c2ccc(O)cc2)C(=O)N1c1ccc(O)cc1,11.8%
11,Cc1cc(C)cc(OCC(=O)NCC(C)CN(C)C)c1 (stereo not given),-4.2%
12,N/C(Cc1ccc([N+](=O)[O-])cc1)=N\OC(=O)COc1ccc(Br)cc1,-8.6%
13,O=C(O)c1ccccc1SC1CC(=O)N(c2ccc(F)cc2)C1=O (stereo not given),8.3%
14,Cc1[nH][nH]c(=O)c1C(c1ccc(F)cc1)C(C#N)C#N (stereo not given),-5.4%
15,Cc1no[n+]([O-])c1COc1cccc(/C=C2\SC(=S)NC2=O)c1,-27.6%
16,CC(C(=O)c1ccc(Cl)cc1)[n+]1cccc(NC(=O)c2ccccc2)c1 (stereo not given),4.8%
17,CCCCOc1ccc(NC(=O)c2cccc(Br)c2)cc1,-3.9%
18,COc1cccc(-n2c(O)c(C(c3ccccn3)c3c(O)n(-c4cccc(OC)c4)c(=O)[nH]c3=O)c(=O)[nH]c2=O)c1,67.7%
19,CCOc1ccc(NC(=O)CSc2ccccn2)cc1,-1.3%
20,O=C1N=c2ccc(I)cc2=C1c1[nH]c(=S)[nH]c1O,5.9%
21,CS(=O)(=O)N(CC(=O)Nc1ccccc1Br)c1ccc(Oc2ccccc2)cc1,-1.1%
22,O=[N+]([O-])c1ccc(Cl)c(/C=N/N2CCN(Cc3cccc4ccccc34)CC2)c1,-15.6%

row,SMILES,displacement
1,CC1C(=O)CC(c2ccco2)NC1c1ccco1 (stereo not given),10.6%
2,Cc1cc(/C=C2/NC(=S)NC2=O)c(C)n1-c1ccc(Br)cc1,12.1%
3,CN1CCN(C2=NC(=O)/C(=C/c3ccc(Cl)cc3Cl)S2)CC1,-7.5%
4,CCN(CC)S(=O)(=O)c1cccc(C(=O)Oc2ccc([N+](=O)[O-])cc2)c1,-10.3%
5,COCCOC(=O)c1c(C)oc2ccc(OCc3ccccc3Cl)cc12,5.4%
6,COCCNC(=O)C(=O)Nc1cc(Cl)ccc1C,-12.6%
7,O=C(O)CCCCCN1C(=O)C(=O)/C(=C(/O)c2ccccc2)C1c1ccccc1Cl (stereo not given),-7.2%
8,CC(C)C(=O)Nc1cccc(-c2nc3cc(Cl)cc(Cl)c3o2)c1,40.5%
9,CC(C)OC(=O)NC(c1ccccc1)C(Cl)(Cl)Cl (stereo not given),-3.6%
10,COC(=O)CN(c1ccccc1F)S(=O)(=O)c1ccccc1,-10.9%
11,O=C(Nc1cccc(C(F)(F)F)c1)c1ccc(OC2CSC2)cc1,-2.2%
12,COc1ccccc1OCC(=O)Nc1ccccc1C(=O)O,-0.4%
13,CCN1C(=O)/C(=C\c2ccc(-c3ccc(C)c(Cl)c3)o2)SC1=S,10.5%
14,COC(=O)c1cccc(NC(=O)CSCc2ccccc2)c1,11%
15,CCCOC(=O)c1ccc(N2C(=O)c3ccccc3C2=O)cc1,5.5%
16,O=C(CN1CCCC1)NCC1COc2ccccc2O1 (stereo not given),-12.7%
17,CCN(CC)c1ccc(NC(=O)Cc2ccccc2)cc1,0.6%
18,Cc1ccnc(NC(=O)C2CCCC2)c1,-7.8%
19,CC1(C)Cc2ccccc2C(=C(C#N)C#N)N1,-0.9%
20,O=C(NCc1ccc(Cl)c(Cl)c1)c1ccccc1F,-2.2%
21,Cc1cc(OCC(=O)Nc2ccc(Cl)c(-c3nc4ncccc4o3)c2)cc(C)c1Cl,-5.1%
22,CCCNC(=O)CC12CC3CC(C1)CC(CC(=O)NCCC)(C3)C2,7.5%

row,SMILES,displacement
1,O=C(NC1CCCCC1)c1ccc(Br)o1,-0.6%
2,CCc1ccc(/C=C2/C(=O)NN(c3ccc(C)cc3)C2=O)cc1,8.6%
3,CCCCSc1nnc2c(n1)OC(c1ccc(O)cc1)Nc1ccccc1-2 (stereo not given),4.2%
4,CCN(CC)c1ccc(/C=N/NC(=O)c2nonc2N)c(OCc2ccc(Cl)cc2Cl)c1,3.3%
5,COc1cccc(C2C(C(=O)Nc3ccccc3)=C(C)N=c3s/c(=C\c4ccc(O)cc4)c(=O)n32)c1 (stereo not given),-6.7%
6,Cc1ccc(C(=O)O)cc1NC(=O)C(c1ccccc1)c1ccccc1,1.4%
7,CCOC(=O)Nc1sc2c(c1C(=O)OCC)CCCCCC2,-9.7%
8,COc1ccc2c(c1C)CCC/C2=N\OC(=O)c1cc(OC)c(OC)c(OC)c1,9.4%
9,Cc1nnc(C)n1/N=C/c1ccc(-c2ccccc2)cc1,-1.5%
10,C[n+]1ccc(/C=C/c2cccc([N+](=O)[O-])c2)cc1,-8.7%
11,CCCC1=NN(C(=O)c2ccc(Br)cc2)C(O)(C(F)(F)F)C1 (stereo not given),4.5%
12,CCCC(=O)Nc1ccc(I)cc1Cl,-4.5%
13,CCOC(=O)c1c(NC(=O)c2ccc([N+](=O)[O-])cc2Cl)sc(C)c1C,1.9%
14,CC(C)c1ccccc1NC(=O)C(C)N1C(=O)c2ccccc2C1=O (stereo not given),-7.2%
15,Cc1ccc(-c2nc3ccccc3s2)cc1NC(=O)c1cccc([N+](=O)[O-])c1,23.9%
16,CC(=O)C1=C(O)C(=O)N(c2nc3ccccc3s2)C1c1ccc(O)cc1 (stereo not given),0.5%
17,COc1ccccc1N1CCN(C(=O)C(Sc2ccccc2)c2ccccc2)CC1 (stereo not given),-94%
18,Cc1ccc(S(=O)(=O)N2CCC(=O)C(C)C2)cc1 (stereo not given),15.2%
19,CCCOc1ccc(C(=O)Nc2scc(-c3ccc(F)cc3)c2C(=O)OC)cc1,37%
20,COC(=O)/C(=C\Nc1cccc2ccccc12)[N+](=O)[O-],17.3%
21,C/C(=N\OCc1nc2c3c4c(sc3ncn2n1)C(C)(C)NC(C)(C)C4)c1ccc(Br)cc1,12.7%
22,Cc1cccc(OCCn2cc(/C=C3/SC(=S)N(C)C3=O)c3ccccc32)c1,15.1%

row,SMILES,displacement
1,CCCCOc1ccc(NC(=O)/C=C/c2ccc(OC)c(OC)c2)cc1,-1.6%
2,Cc1sc(NC(=O)CCC2CCCCC2)nc1-c1ccccc1,0.5%
3,COc1ccc(NC2=C(Cl)C(=O)N(c3cccc(C)c3C)C2=O)cc1,8.8%
4,N#CC1(C(=O)Nc2ccc(C(=O)O)cc2)CC2c3ccccc3C1c1ccccc12 (stereo not given),-4.7%
5,O=[N+]([O-])c1ccc(NCCNCCO)cc1,10.9%
6,Cc1sc2nc(-c3ccccc3)[nH]c(=O)c2c1C,-20.2%
7,c1ccc(-c2nc(-c3ccccn3)no2)cc1,-6.3%
8,CC(=O)c1ccc(NC(=O)COc2ccccc2[N+](=O)[O-])cc1,-6.2%
9,CCOc1ccccc1NC(=O)C(=O)NCc1ccc2c(c1)OCO2,-16.2%
10,COc1ccc2nc(SCC(=O)Nc3ccc(C(C)=O)cc3)[nH]c2c1,5.4%
11,Cc1ccc(S(=O)(=O)Nc2c(C)cc(O)c(S(=O)(=O)c3ccc(C)cc3)c2C)cc1,7.2%
12,CCc1ccc(CN/C=C/C(=O)c2ccc(Br)cc2)cc1,-10.3%
13,COc1ccc(C(NC(=O)c2ccccc2)c2c(O)ccc3ccccc23)cc1 (stereo not given),4.7%
14,COc1cc(-c2ccc(NC(=O)c3ccc(F)cc3)c(OC)c2)ccc1NC(=O)c1ccc(F)cc1,1.6%
15,CC1CCN(C(=O)c2ccc(CN(c3ccccc3)S(C)(=O)=O)cc2)CC1,-2.1%
16,Ic1ccc(Nc2nc3nonc3nc2N2CCOCC2)cc1,-2.4%
17,Cc1ccccc1OCc1nc(-c2ccc([N+](=O)[O-])cc2)no1,6.5%
18,COc1ccccc1Cc1noc(COc2ccc(Cl)cc2)n1,2.2%
19,O=C(NCCc1ccccc1)c1cc2nc(-c3ccc([N+](=O)[O-])cc3)cc(C(F)(F)F)n2n1,12.7%
20,CCOc1ccc(-c2cc(OCC)c3c(C)oc(C)c3c(=[O+]CC)c2)cc1,2.4%
21,Cc1ccc(N=Cc2ccc(O)cc2O)c(C)c1,2.7%
22,CC1=C(C(=O)OCC(C)C)C(c2ccc(OCc3ccccc3)cc2)C2=C(CCCC2=O)N1 (stereo not given),-3.4%

row,SMILES,displacement
1,Cc1cc(Br)cc(C)c1NC(=O)COc1ccccc1,12.4%
2,CCCOC(=O)c1c(-c2ccccc2)csc1N,1.2%
3,COC(=O)c1ccc(NC(=O)CSC(N)=O)cc1,0.6%
4,Cc1cc(C(=O)N/N=C/c2ccc(-c3cccc(C(=O)O)c3)o2)n[nH]1,-13.4%
5,Cc1ccnc(Nc2nc(-c3ccc(Br)cc3)cs2)c1,14.5%
6,CCC12CN3CC(CC)(CN(C1)C3c1ccc(OC)cc1)C2=O (stereo not given),2.9%
7,C/C(Cn1nnc([N+](=O)[O-])n1)=N\NC(=O)c1cccc(Cl)c1,-5.7%
8,COc1ccc(OC)c(NC(=O)CN(c2ccccc2)S(=O)(=O)c2ccccc2[N+](=O)[O-])c1,10.6%
9,O=C(O)c1ccc(CP(=O)(c2ccccc2)c2ccccc2)cc1,4.9%
10,Cc1cc(C)c([N+](=O)[O-])cc1-c1ccc(/C=c2\sc3nc4ccccc4n3c2=O)o1,14.6%
11,Nn1nnnc1Nc1cccc2ccccc12,-15.7%
12,COc1ccc(S(=O)(=O)N(CC(=O)Nc2ccc(C)c(Cl)c2)Cc2ccccc2)cc1,2.6%
13,c1ccc2c(N3CCCCC3)c3ccccc3nc2c1,-9.3%
14,CCOc1ccc(NC(=S)NCCc2ccc(S(N)(=O)=O)cc2)cc1,13.2%
15,CC(=O)N(C1CC(C)C(C#N)(C#N)C1(C#N)C#N)N(C)C (stereo not given),-13.1%
16,CCOC(=O)c1sc(C)c2c(=O)n(CC(=O)c3ccc(Br)cc3)nnc12,0.9%
17,Cc1ccc(N2CC(C(=O)Nc3ccc(N(C)C)cc3)CC2=O)cc1 (stereo not given),-1.1%
18,Cc1ccc2oc(-c3ccc(NC(=O)/C=C/c4ccccc4)cc3O)nc2c1,7%
19,N/C(=N\OC(=O)c1ccc2ccccc2c1)c1cccc([N+](=O)[O-])c1,-7.7%
20,COc1ccc(C2/C(=C(\O)c3ccc(C)cc3)C(=O)C(=O)N2c2nncs2)cc1 (stereo not given),13.6%
21,COC(=O)C1C(=O)NCC1c1ccccc1 (stereo not given),9.5%
22,COC(=O)/C(=C/C(=O)c1ccc([N+](=O)[O-])cc1)Nc1ccc(Br)cc1,4.7%
